In PubChem BioAssay AID488969 (Vanderbilt High Throughput Screening Facility, 2010):
The full ranking holds about 110,000 compounds; the median of “z-score” is about -0.1, and the highest 2% start at about 2. This is one part of the list. Active and inactive are the calls of the source.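 The calls were made as follows: active = z-score in the third read window above 3 or below -3; inactive = the rest.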

Molecular target: Metabotropic glutamate receptor 8 (Rattus norvegicus) (UniProt P70579)
Assay: mGluR8 Gi/Go-coupled signaling modulation – cell-based, rat, thallium flux, HTS, primary screen (AID 488969)
Details: HEK293 rat mGluR8, GIRK (G protein-gated inwardly rectifying potassium channel) thallium flux, FluoZin2; at 10 µM; stronger effect = higher value; submaximal glutamate (EC20) added with thallium

UniProt P70579, sequence (P70579 whole entry, looked up): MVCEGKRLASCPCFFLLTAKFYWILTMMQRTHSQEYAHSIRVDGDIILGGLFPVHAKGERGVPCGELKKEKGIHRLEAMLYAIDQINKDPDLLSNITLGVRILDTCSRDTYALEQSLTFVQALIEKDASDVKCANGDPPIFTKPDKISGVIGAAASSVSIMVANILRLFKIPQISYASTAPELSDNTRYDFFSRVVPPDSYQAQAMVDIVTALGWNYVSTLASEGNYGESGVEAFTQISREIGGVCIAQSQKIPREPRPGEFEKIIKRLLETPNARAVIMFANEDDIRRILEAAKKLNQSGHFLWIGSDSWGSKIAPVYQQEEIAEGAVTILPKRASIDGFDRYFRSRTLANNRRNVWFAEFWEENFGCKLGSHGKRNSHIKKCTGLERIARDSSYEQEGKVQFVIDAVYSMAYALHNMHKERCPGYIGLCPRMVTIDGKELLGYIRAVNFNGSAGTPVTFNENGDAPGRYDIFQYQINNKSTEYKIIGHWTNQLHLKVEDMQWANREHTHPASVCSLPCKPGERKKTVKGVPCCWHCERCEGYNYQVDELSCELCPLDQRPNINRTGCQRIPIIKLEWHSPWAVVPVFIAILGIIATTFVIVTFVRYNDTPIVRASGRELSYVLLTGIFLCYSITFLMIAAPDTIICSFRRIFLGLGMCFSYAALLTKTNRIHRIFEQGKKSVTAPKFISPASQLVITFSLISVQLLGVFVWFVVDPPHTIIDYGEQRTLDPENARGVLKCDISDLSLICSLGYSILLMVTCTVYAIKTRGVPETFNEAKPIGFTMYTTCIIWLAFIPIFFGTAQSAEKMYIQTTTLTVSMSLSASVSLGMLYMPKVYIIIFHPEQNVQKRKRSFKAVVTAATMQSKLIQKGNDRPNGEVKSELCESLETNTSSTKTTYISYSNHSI

| SMILES | z-score |
| --- | --- |
| Cn1c(=O)c(=O)n(C)c2cc(S(=O)(=O)N3CCC(N4CCCCC4)CC3)ccc21 | 1.22 |
| Cc1cc(C)c2c3c(sc2n1)C1(CCSCC1)C(C#N)=C(N)O3 | -0.0686 |
| Cc1cc(N2C3CCC2CC(O)(c2ccc(F)cc2)C3)nc(-c2ccccc2)n1 (stereo unspecified) | -0.0896 |
| CC(=O)Nc1ccc(S(=O)(=O)N2CCCC2C(=O)O)cc1 (stereo unspecified) | 0.696 |
| Nc1nnc(C(c2ccccc2)c2ccccc2)s1 | -0.189 |
| COc1ccc(NC(=O)c2ccccc2F)cc1Cl | -0.386 |
| COc1ccc(Br)cc1CNC(=O)CCc1nc(-c2ccccc2F)no1 | -0.197 |
| O=c1c2sccc2nc(SCc2ccc([N+](=O)[O-])cc2)n1Cc1ccccn1 | -0.346 |
| CN1CC2(C(=O)c3ccccc3)CN(C)CC(C(=O)c3ccccc3)(C1)C2 | 0.389 |
| O=C(CCCN1C(=O)/C(=C\c2ccco2)SC1=S)Nc1cccc2ccccc12 | 0.359 |
| COc1cc(CNCc2cccs2)ccc1OCc1ccccc1 | -0.391 |
| COc1cccc2c(=O)c(SC(F)(F)C(F)C(F)(F)F)c(C)[nH]c12 (stereo unspecified) | 0.261 |
| CCCCCCc1cc2cc(C(=O)Nc3cccc(OC)c3)c(=O)oc2cc1O | -0.279 |
| CCCCSc1nc(O)c(Cc2ccccc2)c(=O)[nH]1 | 0.379 |
| CC(C)c1ccc(NC(=O)C2CCCN(S(=O)(=O)c3cnc[nH]3)C2)cc1 (stereo unspecified) | -0.184 |
| O=C(Cc1csc(Nc2nc(=S)[nH]c3ccccc23)n1)NCc1ccccc1Cl | active: 3.83 |

| SMILES | z-score |
| --- | --- |
| COc1ccccc1NC(=O)CSc1nnnn1Cc1ccccc1 | -0.315 |
| Cc1ccc2[nH]c(-c3ccccc3)c(CN3CCOCC3)c(=O)c2c1 | -0.256 |
| CCNC(=S)NNC(=O)Cn1nc(C)cc1C | 0.0489 |
| C=CCn1cc(C(=O)OC)c(=O)c2cc(S(=O)(=O)N(CC)CC)ccc21 | -0.542 |
| Cc1nc(-c2ccccc2)sc1C(=O)/C=C/c1ccc(Cl)cc1 | -0.365 |
| O=c1cc(CO)oc(CN2CCN(CCO)CC2)c1O | 0.178 |
| O=S1(=O)N=C(Nc2nncs2)c2ccccc21 | -0.0574 |
| O=C1c2ccsc2SCCN1Cc1ccccc1Cl | -1.35 |
| CC(=O)C(Sc1nc(N2CCOCC2)nc(N2CCOCC2)n1)C(=O)Nc1ccccc1 (stereo unspecified) | -0.0389 |
| Cc1ccc(-c2nn(C)c(=O)c3ccccc23)cc1CNS(C)(=O)=O | -0.0971 |
| COC(=O)CSc1cc(SCC(=O)OC)c(C#N)c(SCC(=O)OC)c1 | -1.23 |
| O=C(Nc1ccccc1)C1CC(=O)N(C2CCCCC2)C1 (stereo unspecified) | 0.315 |
| COc1ccc(CC(=O)Nc2ccc(-c3nnc(-c4ccc(C)cc4)o3)cc2)cc1 | -0.695 |
| CC1(C)Cc2c(sc(/N=C/N3CCOCC3)c2C#N)C(C)(C)N1 | -0.0886 |
| Cc1cc(C(=O)OCC(=O)N2c3ccccc3CC2C)c(C)o1 (stereo unspecified) | -1.38 |
